# Reference: the supplement of paper PMC8728848
# The other results are listed elsewhere or left out.
# Tests used:
# Test in all cases: glycan array binding signal (z-score within array); higher = stronger binding
# Conditions in all cases: glycan notation: IUPAC condensed, linker removed
# [1] = biological target: Gal(b1-4)GlcNAc(b1-3)Gal(b1-4)GlcNAc(b1-3)Gal(b1-4)GlcNAc(b1-2)Man(a1-3)[Gal(b1-4)GlcNAc(b1-3)Gal(b1-4)GlcNAc(b1-3)Gal(b1-4)GlcNAc(b1-2)Man(a1-6)]Man(b1-4)GlcNAc(b1-4)GlcNAc
# Procedure, shortened: (§1)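 Glycan array data were curated from 3228 arrays in the Consortium for Functional Glycomics database and kept only where the protein sequence was available. Glycan names were converted to IUPAC-condensed notation, and columns mapping to the same glycan were averaged. The binding signal is a within-array Z-score, averaged across arrays of the same protein sequence at different concentrations or buffers and across linkers. Negative Z-scores can be read as non-binding.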
# [2] = biological target: Gal(b1-4)GlcNAc(b1-3)Gal(b1-4)GlcNAc(b1-3)Gal(b1-4)GlcNAc(b1-2)Man(a1-3)[Gal(b1-4)GlcNAc(b1-3)Gal(b1-4)GlcNAc(b1-3)Gal(b1-4)GlcNAc(b1-2)Man(a1-6)]Man(b1-4)GlcNAc(b1-4)[Fuc(a1-6)]GlcNAc
# Procedure, shortened: as §1
# [3] = biological target: Gal(b1-4)GlcNAc(b1-3)Gal(b1-4)GlcNAc(b1-3)Gal(b1-4)GlcNAc(b1-2)[Gal(b1-4)GlcNAc(b1-3)Gal(b1-4)GlcNAc(b1-3)Gal(b1-4)GlcNAc(b1-6)]Man(a1-6)[Gal(b1-4)GlcNAc(b1-3)Gal(b1-4)GlcNAc(b1-3)Gal(b1-4)GlcNAc(b1-2)Man(a1-3)]Man(b1-4)GlcNAc(b1-4)[Fuc(a1-6)]GlcNAc
# Procedure, shortened: as §1
# [4] = biological target: Gal(b1-4)GlcNAc(b1-3)Gal(b1-4)GlcNAc(b1-3)Gal(b1-4)GlcNAc(b1-3)Gal(b1-4)GlcNAc(b1-2)Man(a1-3)[Gal(b1-4)GlcNAc(b1-3)Gal(b1-4)GlcNAc(b1-3)Gal(b1-4)GlcNAc(b1-3)Gal(b1-4)GlcNAc(b1-2)Man(a1-6)]Man(b1-4)GlcNAc(b1-4)GlcNAc
# Procedure, shortened: as §1
# [5] = biological target: Gal(b1-4)GlcNAc(b1-3)Gal(b1-4)GlcNAc(b1-3)Gal(b1-4)GlcNAc(b1-3)Gal(b1-4)GlcNAc(b1-2)Man(a1-3)[Gal(b1-4)GlcNAc(b1-3)Gal(b1-4)GlcNAc(b1-3)Gal(b1-4)GlcNAc(b1-3)Gal(b1-4)GlcNAc(b1-2)Man(a1-6)]Man(b1-4)GlcNAc(b1-4)[Fuc(a1-6)]GlcNAc
# Procedure, shortened: as §1
# [6] = biological target: Gal(b1-4)GlcNAc(b1-3)Gal(b1-4)GlcNAc(b1-3)Gal(b1-4)GlcNAc(b1-3)Gal(b1-4)GlcNAc(b1-2)[Gal(b1-4)GlcNAc(b1-3)Gal(b1-4)GlcNAc(b1-3)Gal(b1-4)GlcNAc(b1-3)Gal(b1-4)GlcNAc(b1-6)]Man(a1-6)[Gal(b1-4)GlcNAc(b1-3)Gal(b1-4)GlcNAc(b1-3)Gal(b1-4)GlcNAc(b1-3)Gal(b1-4)GlcNAc(b1-2)Man(a1-3)]Man(b1-4)GlcNAc(b1-4)[Fuc(a1-6)]GlcNAc
# Procedure, shortened: as §1
# [7] = biological target: Gal(b1-4)GlcNAc(b1-3)Gal(b1-4)GlcNAc(b1-3)Gal(b1-4)GlcNAc(b1-3)Gal(b1-4)GlcNAc(b1-3)Gal(b1-4)GlcNAc(b1-2)Man(a1-3)[Gal(b1-4)GlcNAc(b1-3)Gal(b1-4)GlcNAc(b1-3)Gal(b1-4)GlcNAc(b1-3)Gal(b1-4)GlcNAc(b1-3)Gal(b1-4)GlcNAc(b1-2)Man(a1-6)]Man(b1-4)GlcNAc(b1-4)GlcNAc
# Procedure, shortened: as §1
# [8] = biological target: Gal(b1-4)GlcNAc(b1-3)Gal(b1-4)GlcNAc(b1-3)Gal(b1-4)GlcNAc(b1-3)Gal(b1-4)GlcNAc(b1-3)Gal(b1-4)GlcNAc(b1-2)Man(a1-3)[Gal(b1-4)GlcNAc(b1-3)Gal(b1-4)GlcNAc(b1-3)Gal(b1-4)GlcNAc(b1-3)Gal(b1-4)GlcNAc(b1-3)Gal(b1-4)GlcNAc(b1-2)Man(a1-6)]Man(b1-4)GlcNAc(b1-4)[Fuc(a1-6)]GlcNAc
# Procedure, shortened: as §1
# [9] = biological target: Gal(b1-4)GlcNAc(b1-3)Gal(b1-4)GlcNAc(b1-3)Gal(b1-4)GlcNAc(b1-3)Gal(b1-4)GlcNAc(b1-3)Gal(b1-4)GlcNAc(b1-2)[Gal(b1-4)GlcNAc(b1-3)Gal(b1-4)GlcNAc(b1-3)Gal(b1-4)GlcNAc(b1-3)Gal(b1-4)GlcNAc(b1-3)Gal(b1-4)GlcNAc(b1-6)]Man(a1-6)[Gal(b1-4)GlcNAc(b1-3)Gal(b1-4)GlcNAc(b1-3)Gal(b1-4)GlcNAc(b1-3)Gal(b1-4)GlcNAc(b1-3)Gal(b1-4)GlcNAc(b1-2)Man(a1-3)]Man(b1-4)GlcNAc(b1-4)[Fuc(a1-6)]GlcNAc
# Procedure, shortened: as §1
# [10] = biological target: Gal(b1-4)GlcNAc(b1-3)Gal(b1-4)GlcNAc(b1-3)Gal(b1-4)GlcNAc(b1-3)Gal(b1-4)GlcNAc(b1-3)Gal(b1-4)GlcNAc(b1-3)Gal(b1-4)GlcNAc(b1-2)Man(a1-3)[Gal(b1-4)GlcNAc(b1-3)Gal(b1-4)GlcNAc(b1-3)Gal(b1-4)GlcNAc(b1-3)Gal(b1-4)GlcNAc(b1-3)Gal(b1-4)GlcNAc(b1-3)Gal(b1-4)GlcNAc(b1-2)Man(a1-6)]Man(b1-4)GlcNAc(b1-4)GlcNAc
# Procedure, shortened: as §1
# [11] = biological target: Gal(b1-4)GlcNAc(b1-3)Gal(b1-4)GlcNAc(b1-3)GalNAc
# Procedure, shortened: as §1
# [12] = biological target: Gal(b1-4)GlcNAc(b1-3)Gal(b1-4)GlcNAc(b1-3)[Gal(b1-4)GlcNAc(b1-3)Gal(b1-4)GlcNAc(b1-6)]GalNAc
# Procedure, shortened: as §1
# [13] = biological target: Gal(b1-4)GlcNAc(b1-3)Gal(b1-4)GlcNAc(b1-6)[Gal(b1-3)]GalNAc
# Procedure, shortened: as §1
# [14] = biological target: Gal(b1-4)GlcNAc(b1-3)Gal(b1-4)[Fuc(a1-3)]GlcNAc(b1-3)Gal(b1-4)[Fuc(a1-3)]GlcNAc
# Procedure, shortened: as §1
# [15] = biological target: Gal(b1-4)GlcNAc(b1-3)GalNAc
# Procedure, shortened: as §1
# [16] = biological target: Gal(b1-4)GlcNAc(b1-3)[Fuc(a1-3)GlcNAc(b1-6)]Gal(b1-4)Glc
# Procedure, shortened: as §1
# [17] = biological target: Gal(b1-4)GlcNAc(b1-3)[Gal(b1-4)GlcNAc(b1-6)]Gal(b1-4)GlcNAc
# Procedure, shortened: as §1
# [18] = biological target: Gal(b1-4)GlcNAc(b1-3)[GlcNAc(b1-6)]Gal(b1-4)GlcNAc
# Procedure, shortened: as §1
# [19] = biological target: Gal(b1-4)GlcNAc(b1-6)Gal(b1-4)GlcNAc
# Procedure, shortened: as §1
binder,measurement,setting,value
Clec18C (Homo sapiens) (protein) MLHPETSPGRGHLLAVLLALLGTAWAEVWPPQLQEQAPMAGALNRKESFLLLSLHNRLRSWVQPPAADMRRLDWSDSLAQLAQARAALCGTPTPSLASGLWRTLQVGWNMQLLPAGLVSFVEVVSLWFAEGQRYSHAAGECARNATCTHYTQLVWATSSQLGCGRHLCSAGQAAIEAFVCAYSPRGNWEVNGKTIVPYKKGAWCSLCTASVSGCFKAWDHAGGLCEVPRNPCRMSCQNHGRLNISTCHCHCPPGYTGRYCQVRCSLQCVHGRLREEECSCVCDIGYGGAQCATKVHFPFHTCDLRIDGDCFMVSSEADTYYRARMKCQRKGGVLAQIKSQKVQDILAFYLGRLETTNEVIDSDFETRNFWIGLTYKTAKDSFRWATGEHQAFTSFAFGQPDNHGFGNCVELQASAAFNWNNQRCKTRNRYICQFAQEHISRWGPGS,glycan array binding signal (z-score),[1],1.85
same,glycan array binding signal (z-score),[2],-0.242
same,glycan array binding signal (z-score),[3],-0.191
same,glycan array binding signal (z-score),[4],1.91
same,glycan array binding signal (z-score),[5],-0.276
same,glycan array binding signal (z-score),[6],2.21
same,glycan array binding signal (z-score),[7],1.84
same,glycan array binding signal (z-score),[8],3.34
same,glycan array binding signal (z-score),[9],0.598
same,glycan array binding signal (z-score),[10],0.31
same,glycan array binding signal (z-score),[11],-0.28
same,glycan array binding signal (z-score),[12],0.156
same,glycan array binding signal (z-score),[13],-0.581
same,glycan array binding signal (z-score),[14],-0.106
same,glycan array binding signal (z-score),[15],0.056
same,glycan array binding signal (z-score),[16],-0.356
same,glycan array binding signal (z-score),[17],7.63
same,glycan array binding signal (z-score),[18],-0.059
same,glycan array binding signal (z-score),[19],-0.493
